Laboratory results reported in PMC4336329 (PLoS ONE, 2015).
Out of some 310,000 compounds screened, about 14,000 (4.5%) showed an effect of 50% or more. Effects have a minus sign here. The list shows a part of the results.

Each molecule was assayed against human ether-à-go-go-related gene (hERG) potassium channel (human, UniProt Q12809) (assay: primary screen, population patch clamp on CHO cells stably expressing hERG).
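Further: peak tail current of the secondary pulse compared with the same well before compound.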

human ether-à-go-go-related gene (hERG) potassium channel, sequence (Q12809 whole entry, looked up): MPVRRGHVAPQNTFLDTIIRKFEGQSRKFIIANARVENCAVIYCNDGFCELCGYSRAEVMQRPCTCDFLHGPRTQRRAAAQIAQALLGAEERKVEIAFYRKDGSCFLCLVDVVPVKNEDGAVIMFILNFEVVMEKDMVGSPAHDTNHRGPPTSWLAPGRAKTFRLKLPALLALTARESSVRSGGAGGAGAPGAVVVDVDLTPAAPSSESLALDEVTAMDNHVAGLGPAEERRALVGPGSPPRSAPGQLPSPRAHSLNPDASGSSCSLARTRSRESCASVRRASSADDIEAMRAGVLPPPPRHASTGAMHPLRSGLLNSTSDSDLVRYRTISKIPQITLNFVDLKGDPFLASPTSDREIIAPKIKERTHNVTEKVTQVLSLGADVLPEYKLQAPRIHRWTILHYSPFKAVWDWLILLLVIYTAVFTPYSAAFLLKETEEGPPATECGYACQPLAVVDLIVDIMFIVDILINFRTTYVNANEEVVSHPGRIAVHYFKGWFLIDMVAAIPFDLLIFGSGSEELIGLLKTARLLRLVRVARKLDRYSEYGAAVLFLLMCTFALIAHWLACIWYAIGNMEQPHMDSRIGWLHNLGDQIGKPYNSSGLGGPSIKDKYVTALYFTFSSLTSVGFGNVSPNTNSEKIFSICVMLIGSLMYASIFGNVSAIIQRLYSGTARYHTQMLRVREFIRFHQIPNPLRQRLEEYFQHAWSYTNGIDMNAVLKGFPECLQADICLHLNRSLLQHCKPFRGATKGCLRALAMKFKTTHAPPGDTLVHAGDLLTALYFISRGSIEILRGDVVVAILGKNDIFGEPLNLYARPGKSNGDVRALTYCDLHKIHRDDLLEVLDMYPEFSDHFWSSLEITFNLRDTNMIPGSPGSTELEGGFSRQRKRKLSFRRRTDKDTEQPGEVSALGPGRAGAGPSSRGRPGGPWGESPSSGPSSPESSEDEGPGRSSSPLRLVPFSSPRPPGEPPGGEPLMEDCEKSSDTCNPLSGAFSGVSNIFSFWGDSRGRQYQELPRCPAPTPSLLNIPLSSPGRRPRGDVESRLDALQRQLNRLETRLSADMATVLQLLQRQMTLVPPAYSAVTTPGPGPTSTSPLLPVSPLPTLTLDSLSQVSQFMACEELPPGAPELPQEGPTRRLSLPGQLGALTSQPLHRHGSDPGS

Row | Compound | hERG current change (%, negative = inhibition) at 10uM [%]
1 | COc1ccc(CN2CCN(C(=O)c3cccc4ccccc34)CC2)cc1Br | 0.873
2 | O=C(CCSc1nnc(-c2ccco2)o1)N1CCOCC1 | -10.4
3 | COc1ccc(NC(C)=O)cc1NC(=O)c1ccc(Cl)cc1 | -18.2
4 | O=C1COc2ccc(C(=O)COC(=O)c3sc4ccccc4c3Cl)cc2N1 | 14
5 | CCOc1ccccc1-c1nc(-c2ccncc2)no1 | -15.8
6 | Cn1c(CNc2ccccc2)cc(=O)n(C)c1=O | 6.36
7 | COC1CCCCC1Nc1cc(C)ccc1C (stereo not drawn) | 10.4
8 | Nc1nnc(SCC(=O)Nc2cccc3ccccc23)s1 | 14.1
9 | COc1ccc(CSC2=NCCN2)cc1Br | 1.43
10 | CC(C)(C)CN1C(=O)C(=O)NC[C@@H]1CCCCN | 17.4
11 | CCN(CC)CC.CCOc1ccccc1-n1c(=S)sc2c(=O)n(-c3ccc(C)cc3)c(=S)[nH]c21 | 17.3
12 | COC(=O)c1nc2nc(C)cc(C(F)(F)F)n2n1 | 8.95
13 | O=C(NCc1cccnc1)NC1CC(=O)N(c2ccc3c(c2)OCCO3)C1 (stereo not drawn) | -0.536
14 | COc1ccc(CCNS(=O)(=O)c2cc3c(cc2C)NC(=O)CO3)cc1OC | 6.94
15 | COc1ccccc1N1CCN(C(=O)c2cc(-c3ccccc3)on2)CC1 | 8.22
16 | CCOC(=O)c1ccc(N)cc1 | 14.4
17 | COc1cccc(C(=O)NCC2(c3ccccc3)CCCC2)c1 | -9.86
18 | Cc1ccc(-c2nn3c(C)nnc3c3ccccc23)cc1S(=O)(=O)NCCN1CCOCC1 | -30.5
19 | CC(=O)c1ccc(NC(=O)CSc2nc(C)cc(C)c2C(N)=O)cc1 | 14.9

Row | Compound | hERG current change (%, negative = inhibition) at 10uM [%]
20 | O=C(CC12CC3CC(C1)CC(CC(=O)N1CCCC1)(C3)C2)N1CCCC1 | -1.42
21 | CC(C)C[C@H](NC(=O)c1nc[nH]c1C(=O)NCc1ccc(CNC(=O)OC(C)(C)C)cc1)C(=O)OC(C)(C)C | 2.06
22 | COc1cc(C(=O)OCCN2CCOCC2)ccc1O | 6.63
23 | COCC(=O)OCC(=O)Nc1cc(C(C)(C)C)nn1-c1ccccc1 | 19.8
24 | CC(NC(=O)Cc1ccsc1)c1ccc(F)cc1 (stereo not drawn) | 10.1
25 | COc1ccccc1NC(=O)CN1CCN(c2ccc(Cl)cc2)CC1 | -3.82
26 | COCCOC(=O)c1c(NC(=O)CNCc2ccco2)sc(C(N)=O)c1C | -11
27 | Cc1cc(=O)n2c(nc3ccccc32)[nH]1 | -5.21
28 | O=C(CCn1cccc(C(F)(F)F)c1=O)Nc1cccc(C(F)(F)F)c1 | -5.91
29 | Cc1nc(CNC(=O)CC2C(=O)NCCN2Cc2cccc(Oc3ccccc3)c2)cs1 (stereo not drawn) | 10.4
30 | c1ccc(-c2noc(-c3cccs3)n2)nc1 | -22.7
31 | N/C(Cc1ccc(Cl)c(Cl)c1)=N\OC(=O)c1cccs1 | 8.25
32 | COC(=O)Nc1ccc(S(=O)(=O)N(CCO)CC(F)(F)C(F)F)cc1 | 18.3
33 | O=C(/C=C/c1ccccc1)N/C(=C/c1ccccc1)C(=O)Nc1ccc(C(=O)O)cc1 | 19.6
34 | COc1ccc(NC(=O)CSc2nnnn2C2CC3C=CC2C3)cc1 (stereo not drawn) | -10.5
35 | CC(C)CN1CCN(Cc2c[nH]c3ccccc23)CC1CCO (stereo not drawn) | 4.11
36 | COc1cc([N+](=O)[O-])ccc1NC(=O)Nc1cccnc1 | 12.3
37 | NC(=O)NC(=O)COC(=O)c1ccccc1Oc1ccccc1 | -6.45
38 | COc1ccc(C(=O)OCC(=O)N(C)C2CCS(=O)(=O)C2)cc1S(=O)(=O)N1CCCc2ccccc21 (stereo not drawn) | -8.39

Row | Compound | hERG current change (%, negative = inhibition) at 10uM [%]
39 | CCn1nc(C)c(CN2CCN(Cc3cccc(OC)c3)C(CCO)C2)c1C (stereo not drawn) | -6.7
40 | Cc1ccccc1NS(=O)(=O)c1nnc(NC(=O)c2ccc(Br)cc2)s1 | 17.8
41 | CC1CCN(CCOCCOc2ccccc2-c2ccccc2)CC1 | -57.2
42 | COC(=O)C(Cc1csc2ccc(Cl)cc12)NC(=O)c1ccc(Cl)cc1 (stereo not drawn) | -8.71
43 | Cc1ccccc1-n1cnc2c(sc3nc(N4CCOCC4)c4c(c32)CCCC4)c1=O | -5.23
44 | COc1cccc(NC(=O)[C@@H]2CCCN2C(=O)[C@@H]2Cc3ccccc3CN2C(=O)OC(C)(C)C)c1 | 4.94
45 | COc1ccc(S(=O)(=O)Cc2ccc(C(=O)N3CCC4(CC3)OCCO4)o2)cc1 | -10.1
46 | NC(=O)Cn1nc(C(F)(F)F)c2c1CCCC2 | 18.4
47 | Nc1c(Cl)c(Cl)nc(C(=O)N/N=C/c2cccnc2)c1Cl | -3.18
48 | Nn1c(Nc2ccccc2)nc2sc3c(c2c1=O)CCCC3 | 2.2
49 | C=CCc1ccc(OCC(O)CN2CCc3ccccc3C2)c(OC)c1.Cl (stereo not drawn) | -68.8
50 | CCCN(CCC)C(=O)c1c(C)[nH]c(C(=O)OCC)c1C | 9.79
51 | CCOC(=O)c1c(C)[nH]c(C(=O)CN2C(=O)NC(C)(c3ccc4ccccc4c3)C2=O)c1C (stereo not drawn) | -0.934
52 | COCCn1c(CN(Cc2ccccc2)Cc2ccccc2)nc2c1c(=O)n(C)c(=O)n2C | -62.8
53 | O=C(O)c1ccccc1C(c1ccc(O)cc1)c1ccc(O)cc1 | 18.3
54 | CCn1c(COc2ccccc2)nnc1SCC(=O)Nc1ccc2c(c1)OCCO2 | -6.9
55 | CC(=O)N1CCN(c2cc(N3CCCC3)c(F)cc2[N+](=O)[O-])CC1 | 5.05
56 | Cc1ccc(S(=O)(=O)Nc2ccccc2/C=N/c2nc3ccccc3n2C(C)C)cc1 | -16.4
57 | CN(C)S(=O)(=O)c1ccc(C(=O)NCCN2C(=O)S/C(=C\c3cccnc3)C2=O)cc1 | -27
